Measurements: PubChem BioAssay AID1476 (National Center for Advancing Translational Sciences (NCATS), 2009)
Among all 200,000 compounds or so, about 4,500 (2.2%) were called active. Inconclusive results, whose numbers are uncertain, are shown with a selection of clear calls. Calls come from the whole dose curve; as a rule, active = well fitted inhibition curve with a large enough effect; inconclusive = small, poorly fitted or top-dose-only effect, or effect the other way; inactive = flat fitted curve, though single readings scatter. A potency beside an inconclusive call is a rough fit, not a confirmed value.

target: Cruzipain (Trypanosoma cruzi) (UniProt P25779); assay: qHTS Assay for Promiscuous and Specific Inhibitors of Cruzain (without detergent); conditions: purified cruzain, Z-FR-AMC fluorescence, no detergent; note: nearly all actives have a fitted effect of over 40% in size;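 for max response, negative = inhibition: plate controls were enzyme without inhibitor for no effect and buffer without enzyme for full effect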
Outline: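 Detergent-free condition (0.00005% Triton X-100) in acetate buffer pH 5.5 with DTT. 1.5 nM enzyme and compound were pre-mixed 15 min, then 2 uM Z-FR-AMC substrate added; reaction progress from fluorescence change between first and third reads (60 s).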
Potency is the fitted concentration of half-maximal effect; tags give direction and shape of the fitted curve.

Chain of UniProt P25779 (P25779 whole entry, looked up): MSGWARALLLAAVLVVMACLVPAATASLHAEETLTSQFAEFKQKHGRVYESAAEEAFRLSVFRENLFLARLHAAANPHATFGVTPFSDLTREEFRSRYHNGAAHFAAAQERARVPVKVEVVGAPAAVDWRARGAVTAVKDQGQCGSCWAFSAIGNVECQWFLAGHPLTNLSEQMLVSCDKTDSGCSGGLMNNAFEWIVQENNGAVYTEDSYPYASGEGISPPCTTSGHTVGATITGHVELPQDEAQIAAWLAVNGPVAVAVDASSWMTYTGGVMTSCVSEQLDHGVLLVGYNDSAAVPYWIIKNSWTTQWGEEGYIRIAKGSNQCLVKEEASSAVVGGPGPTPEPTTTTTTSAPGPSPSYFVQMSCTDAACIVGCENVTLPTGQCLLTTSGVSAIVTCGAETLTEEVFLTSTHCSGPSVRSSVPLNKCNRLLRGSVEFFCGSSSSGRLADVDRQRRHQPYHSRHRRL

Row | Structure (SMILES) | Potency | max response, negative = inhibition
1 | COc1cc2c(cc1NC(=O)c1cccc(S(=O)(=O)N(C)C)c1)oc1ccccc12 | inconclusive: 39.8 µM [inhibitor, single point] | 
2 | CSc1ccc(CNC(=O)c2ccc(NC(=O)c3nsc4ccccc34)cc2)cc1 | inconclusive: 39.8 µM [inhibitor, single point] | 
3 | CCOC(=O)c1c(C)nc2c(c1-c1ccccc1)C(=O)c1ccccc1-2 | inconclusive: 39.8 µM [activator, single point] | 
4 | CCOc1ccc(/C(C)=N/N2C(=O)C(CC(=O)Nc3ccc(OC)cc3[N+](=O)[O-])SC2=Nc2cccc(C)c2C)cc1 (configuration not stated) | active: 10 µM | 
5 | Cc1nn(-c2ccc(C(=O)Nc3nnc(C4CC4)s3)cc2)c(C)c1Cl | inconclusive: 31.6 µM [inhibitor, single point] | 
6 | Cc1ccc(NC(=O)CC2SC(=O)N(c3ccccc3)C2=O)cc1 (configuration not stated) | inconclusive: 25.1 µM [inhibitor, single point] | 
7 | Cc1cccc(OCc2nnc(SCC(=O)N3CCN(c4ccccc4)CC3)o2)c1C | inconclusive: 39.8 µM [activator, single point] | 
8 | Cc1cc(C)n(-c2nc3ccccc3nc2N2CCN(c3cccc(C)c3C)CC2)n1 |  | inactive: -4.2%
9 | CCOC(=O)c1cc2c(=O)n3ccccc3nc2n(CC2CCCO2)c1=NC(=O)c1ccc(OC)cc1OC (configuration not stated) |  | inactive: 0.427%
10 | COc1cccc(NC(=O)Cn2c(=O)n(CCc3ccccc3)c(=O)c3c4c(sc32)CN(C(C)=O)CC4)c1 | inconclusive: 20 µM [activator, partial curve] | 
11 | CSc1ncnc2c1ncn2[C@@H]1O[C@@H](CO)[C@H](O)O[C@@H]1O |  | inactive: -0.0037%
12 | O=C(Nc1cc(Oc2ccccc2)cc([N+](=O)[O-])c1)C12CC3CC(C1)CC(n1cnc(Cl)n1)(C3)C2 | inconclusive: 39.8 µM [inhibitor, single point] | 
13 | Cc1no[n+]([O-])c1COc1cccc(/C=C2\N=C(c3ccccc3)OC2=O)c1 | inconclusive: 20 µM [inhibitor, single point] | 
14 | CCOc1ccc(/C=N/NC(=O)Cc2csc(Nc3cccc(C(F)(F)F)c3)n2)cc1 | inconclusive: 2 µM [inhibitor, partial curve, poor fit] | 
15 | Cc1cc(C(=O)CSc2nnnn2-c2ccccc2)c(C)n1-c1ccc2c(c1)OCO2 | active: 3.16 µM | 
16 | Cc1oc(-c2cccc(Cl)c2)nc1CN1CCCC(C(=O)N2CCN(c3ccc(F)cc3)CC2)C1 (configuration not stated) |  | inactive: -18.4%
17 | COc1ccc(OC)c(S(=O)(=O)N2CCC(C(=O)NCCC3=CCCCC3)CC2)c1 | inconclusive: 39.8 µM [activator, single point] | 
